Measured values: the supplement of paper PMC3334620
The full ranking holds about 33,000 sequences; the median of “E-score (-0.5 to 0.5)” is about -0.036, and the highest 2% start at about 0.37. Some of the results follow.

The sequences below were run against T1, Yer064c (UniProt P40041) (assay: PBM E-score (8-mer binding enrichment) (E-score (-0.5 to 0.5)); higher = stronger / more preferred TF binding; most listed sequences are background and not binding sites). Settings: protein concentration: 200 nM; construct: GST-full length.
T1 sequence: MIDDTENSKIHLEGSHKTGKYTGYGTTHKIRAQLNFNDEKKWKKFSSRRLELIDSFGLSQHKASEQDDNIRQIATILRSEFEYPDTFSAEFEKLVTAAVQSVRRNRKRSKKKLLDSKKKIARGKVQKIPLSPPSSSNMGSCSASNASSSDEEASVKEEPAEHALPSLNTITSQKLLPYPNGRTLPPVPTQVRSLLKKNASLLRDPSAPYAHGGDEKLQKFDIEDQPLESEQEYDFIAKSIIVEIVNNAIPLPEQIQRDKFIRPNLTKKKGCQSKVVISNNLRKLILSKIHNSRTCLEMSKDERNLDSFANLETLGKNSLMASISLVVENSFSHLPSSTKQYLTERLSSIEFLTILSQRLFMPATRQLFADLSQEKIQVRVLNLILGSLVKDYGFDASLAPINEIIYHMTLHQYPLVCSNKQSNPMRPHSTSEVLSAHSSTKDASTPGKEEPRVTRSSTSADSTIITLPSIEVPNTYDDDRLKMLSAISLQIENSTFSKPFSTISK
Summary of the method: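 For each ungapped eight-base word taken together with its reverse complement, the Universal PBM Analysis Suite assigned an E-score. Binding data came from GST-tagged yeast transcription factors, applied at about 100-200 nM, on universal all-10-mer Agilent arrays made double-stranded by primer extension. Fluorescent anti-GST marked bound protein, and scans were normalised with masliner.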

Sequence | PBM E-score
ACGTGCGC | -0.163
TAAAAAGA | 0.0523
ACGACGAC | 0.0346
ATGTGTAA | 0.284
CAGTGCGC | -0.294
GAACATCA | -0.046
GCTCGTCC | -0.0981
AGGCTATG | -0.0211
CCAGGCGC | -0.114
GAGTTAAC | 0.132
CGTGATTA | 0.393
AACCAGCT | 0.0589
AGTCAGAT | 0.427
CTGGAACC | -0.0767
ACCCCAGG | -0.0425
CTTAACGC | -0.0621
CGTTGACC | -0.0892
CCAATGGA | -0.00691
CAGCTGGC | -0.0977
GAAGCATC | -0.253
CGAAATAC | -0.109
GTTGCGTA | -0.0379
AAGCTATA | -0.00366
CAAGGGTC | -0.325
AGCAAATA | -0.157

Sequence | PBM E-score
GGCTCTAA | -0.054
CAGCCATG | 0.113
AGGTCAAG | -0.0459
CCCGCTTA | -0.012
GCAGCTCC | -0.211
CGTAACGC | -0.199
TACTAGAA | 0.112
GGTTAGAA | 0.00612
ATCTCGTA | 0.0955
CGAGGTGC | -0.148
GCTAGCTA | -0.166
AACGGAGT | 0.152
ACGTAAGC | -0.0989
ATGGAGAC | 0.174
ATTATATC | -0.0643
CTCGAGTC | 0.37
CATGCACC | -0.0155
GAGCCCAA | -0.0756
GGTATGAA | 0.101
AAGATTGC | 0.0129
CTGCGTGA | 0.14
GGGTTGCA | -0.0659
CGGTATTC | -0.252
CCAGATAG | 0.0194
AAAGTTAT | -0.007

Sequence | PBM E-score
AGTAACTC | 0.136
GTCCCACA | -0.0159
ATGTGCTA | 0.0639
AACTTGAG | 0.205
CGACCATC | -0.247
CATCCACA | -0.0659
GGACAGGA | -0.084
ACGCTAAG | -0.133
GTAGTACA | 0.109
ATCACGAT | 0.249
ATCGAAGG | -0.0239
GTGTGAAA | -0.00015
CCCACCGA | -0.0423
GGCAGATA | -0.225
GCCGTCGC | -0.269
CTATCTGA | 0.17
CAGGTCAC | -0.174
CGATTTCC | -0.0704
ACGCTTTA | -0.165
TAATCTGA | 0.319
GGTTAAGA | 0.101
ACGCAGAG | 0.0941
CAGGCGAC | 0.0705
GGCGATTA | 0.206
AGCAAAGG | -0.0425

Sequence | PBM E-score
AATGCTAA | -0.102
AGTGTGGG | -0.117
CTTTTATC | -0.029
GAAACTCC | -0.348
CTTGTCCC | -0.23
ATTTCGAA | 0.0289
GGTGAAAC | -0.0236
AGTAAGAC | 0.23
ACATGACC | 0.047
TCAGATCA | 0.0817
GTACGAGA | 0.0415
CCGAAGAA | -0.0331
ACGAACCC | -0.252
TATACTCA | 0.317
GCTCCTCA | -0.2
ATAATTTC | 0.0475
AGTCAGTA | 0.42
GTGAGACA | 0.332
ATCCTATC | -0.128
GCCAAACC | -0.229
AGTCCTTC | 0.326
ATAGGAAA | 0.0679
CCCATCCA | -0.112
CGATGCCG | -0.16
CGAGCGGC | -0.145

Sequence | PBM E-score
CAAAGCAA | -0.101
ACTCAACC | 0.322
GCCGGCCA | -0.172
ACCCCAAT | -0.114
AATTCCGG | -0.262
AGTCAGTC | 0.442
GAGCTAAC | -0.123
CCGGCGTC | -0.209
ACCGCATA | -0.00062
AGTTGACA | 0.0818
CAATATAC | -0.00478
CTCGCGTC | 0.037
ACACCGAT | 0.025
ACAGACAC | 0.0396
CCTACATC | -0.331
GCTCATCA | 0.184
CGTGCTTA | 0.0616
ACTATTCT | 0.0667
GCCATCCC | -0.0412
AGTGCTAC | 0.021
CAATAACA | -0.171
CCAAGGAC | -0.0257
CAAGCTGC | -0.138
AGAATTGC | -0.164
TGAGCAAA | 0.114

Sequence | PBM E-score
TCGATCAA | -0.00739
AGAACGCA | -0.167
TCTGTCAA | -0.0702
CTGTCTGA | 0.108
ATGTCCGC | -0.263
TCGGACAA | -0.028
GACATCGC | -0.275
ATAAGGTG | 0.133
ATGGTCCA | -0.169
CGTGCATA | -0.0202
TTAGATAA | 0.136
CACAAAAC | -0.0441
CCCCATCC | -0.157
GAATTATC | 0.0224
CAACAGTC | 0.318
CGGTTTCC | -0.127
AATCACGA | 0.347
CTCGTATC | -0.0383
AGGTACAT | -0.0479
CCCTAGGA | -0.032
TCGCGGCA | -0.14
CACGACTG | 0.238
CCTACGGC | -0.142
ATGCGATC | -0.12
AAACATAC | -0.0564

Sequence | PBM E-score
AGTCCTAC | 0.345
GATCATAA | 0.213
GGAGGTCA | 0.0981
AGGACCAT | 0.0303
CATTAATC | 0.271
CGAGCTAC | -0.237
AGGTTGCG | -0.0841
TACGGTCA | -0.0997
ACCGTTGC | -0.251
AAATAGGC | -0.292
ATGTCAAG | -0.0582
AGTATGGG | -0.0119
CTAATAGC | 0.056
CCCAAATA | -0.123
TAAATGGA | 0.0193
GAAGACCC | -0.0698
GTATAAAC | 0.0607
AAGTGCGC | -0.106
GAGGCGCA | -0.362
GGAGCCTA | -0.121
CATAAGAA | 0.157
CCACGCAG | 0.0326
